# Experimental data taken from the supplement of paper PMC3334620.
# Over roughly 33,000 sequences, “E-score (-0.5 to 0.5)” has its median near -0.054; the highest 2% begin near 0.39. Some of the results follow.
# Molecular target: Ylr278c (UniProt Q05854)
# Assay: PBM E-score (8-mer binding enrichment) (E-score (-0.5 to 0.5)); higher = stronger / more preferred TF binding; most listed sequences are background and not binding sites
# Conditions: protein concentration: 200 nM; construct: GST-DNA-binding domain
# In short: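 PURExpress in vitro transcription/translation supplied GST-tagged yeast transcription factors, either full-length or DNA-binding domain. Applied at about 100-200 nM to universal all-10-mer Agilent arrays double-stranded by primer extension, the bound protein was detected with fluorescent anti-GST. E-scores, modified Wilcoxon-Mann-Whitney statistics, were given by the Universal PBM Analysis Suite to ungapped eight-base words pooled with their reverse complements after masliner normalisation.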
row,Sequence,PBM E-score
1,CACATTGG,-0.146
2,ATCAATCA,-0.119
3,CGGCTGAA,0.142
4,ATCTGGAG,0.0676
5,TAGGTTGA,-0.212
6,CCGTGTGC,0.268
7,GCAAGACC,0.0338
8,CCTTCGGC,0.112
9,CGTCCTAC,0.0768
10,TCCTTACA,-0.0094
11,ATAGTAAT,-0.00108
12,AGACCAGG,-0.143
13,AGTTACAA,0.127
14,ATCTGGAA,-0.0874
15,CCGTACAC,0.0043
16,CAAGGGGG,-0.373
17,GCCACGCA,-0.115
18,AAGTGTGA,-0.278
19,CACGCGTA,-0.00675
20,AATGCTGC,-0.0877
21,CTGTACCA,-0.247
22,ATGACGTG,-0.239
23,ACGAAGCC,0.0447
24,GACCACGA,-0.179
25,TCTATGCA,-0.232

row,Sequence,PBM E-score
1,ACACTAAG,-0.295
2,GTGCTAGA,-0.277
3,GGAAAAAC,0.275
4,GGCATTCA,0.139
5,GCAGTGAC,0.0164
6,AACTAGAT,-0.00368
7,GACGGCGC,0.169
8,AGCGCAAA,-0.0731
9,GAACATCC,0.224
10,CCCATACC,-0.0976
11,CGTCAAAC,-0.0883
12,AACCGCTA,-0.104
13,ATCAATAA,-0.0629
14,CGCTGCGC,0.0667
15,AAGTCGAA,-0.299
16,CTTTGAAA,-0.201
17,TCAGTCCA,-0.366
18,GCTGTCCA,-0.0953
19,AACCAATT,-0.0198
20,AAGCTAGT,-0.188
21,CCAGTTCC,0.222
22,TATAGCCA,-0.109
23,CGGCGGCA,0.281
24,CGGCAGTC,0.183
25,ATACGTTG,-0.301

row,Sequence,PBM E-score
1,CGCATCAC,-0.0929
2,ATCTCGCC,0.109
3,TCCGGCCA,0.409
4,AAAGATCT,-0.111
5,TACTTATA,-0.134
6,CATGTCGA,-0.0566
7,TAATTTGA,-0.11
8,AAACCTTT,0.0364
9,ACTAGTGG,-0.0388
10,AGTCTGTC,-0.198
11,AGAGACGG,-0.0308
12,AGGTGTGA,-0.104
13,ATAGCAAC,-0.0535
14,AAGAGGGA,-0.297
15,CGACGCAA,0.114
16,TCGCCGCA,0.29
17,AACTTCTA,-0.231
18,TAATACCA,0.0433
19,AGCGTCGG,0.295
20,ACAGAGAG,-0.355
21,CCAGTTTA,-0.105
22,CGCAGGCG,-0.0383
23,ACGAGACC,0.0143
24,AGCGATAG,-0.158
25,CCATGTTA,-0.141

row,Sequence,PBM E-score
1,CCTCGTAA,-0.00886
2,TAGGCGAA,-0.238
3,AGGACCTA,0.0121
4,CAGGGCGG,0.21
5,AACAACGA,-0.106
6,GCGGTCAC,0.0131
7,AGGTCACA,-0.213
8,AATGACAA,-0.115
9,GATCGCCC,0.0296
10,ACTAGGTC,-0.0285
11,CGATTTAC,0.114
12,AATGTTTA,-0.134
13,ATTACCCA,-0.056
14,TCTTATCA,0.0183
15,CGACGGCC,0.108
16,ACGAGCCG,0.0569
17,ACAAGCTA,-0.277
18,ACGGGGTG,0.0357
19,TGAATTAA,-0.0358
20,CCTTCACC,-0.0695
21,AGATTGGG,0.0161
22,AAAACGCT,-0.156
23,AGGAATTC,-0.0584
24,CAACTATA,-0.105
25,ACCGTCCA,0.0873

row,Sequence,PBM E-score
1,ATGCAGCA,-0.118
2,CAACGGTG,0.0327
3,CACCGCGA,0.12
4,ACGTCAAT,-0.238
5,AAAATTTC,-0.0813
6,TGGGCTAA,-0.0598
7,AACGGTCG,0.126
8,CCTCGGCG,0.359
9,AGGAGCCC,0.12
10,AAGTCGAC,-0.00141
11,AAAACACA,-0.0787
12,AAAAAAAG,-0.012
13,CCTCAGTC,-0.139
14,GATGAAAA,0.0362
15,CTTCAACA,-0.253
16,AAATGCTC,0.0464
17,CTTCTTAA,-0.118
18,AGCAATTC,0.0217
19,AGGGCGCG,-0.0333
20,AAACTCAG,-0.181
21,CGCCCGAA,0.111
22,CCACCATC,-0.065
23,ATTCCATA,0.0215
24,TCCTACAA,-0.065
25,AGTCGCAG,-0.114

row,Sequence,PBM E-score
1,ACCAGGCT,-0.379
2,GGTTGGAA,0.134
3,TGCCCACA,-0.268
4,GCCCCGTA,0.0577
5,GGCCACTA,-0.0397
6,CAACCCAA,-0.193
7,ATGAGTAG,-0.00731
8,CGAGACAG,-0.0905
9,ACGTTGTC,-0.0899
10,GAAAGTTA,0.0235
11,GCCCTAGA,-0.212
12,CATGAGCG,-0.00958
13,GACCTATC,-0.0879
14,AATAAACT,0.0605
15,AAGCACGC,-0.0908
16,GTCCTGCA,-0.274
17,ACATTTCG,-0.0113
18,ATGGTCCG,0.362
19,CCCCCCGA,0.083
20,CAAGAAAC,0.119
21,CGGTGTTA,0.331
22,ATGCGGGC,0.0941
23,ACATCAGT,-0.0951
24,ATGCACGC,-0.0143
25,CGTACAAC,-0.0582

row,Sequence,PBM E-score
1,CGGATAAG,0.262
2,CGTGGCCC,-0.0746
3,AATCTCGA,-0.102
4,GGGGTGCA,0.2
5,CGACTGCG,0.12
6,ACCATATA,-0.15
7,GTCATGAC,0.0612
8,ACCAAATG,-0.0915
9,CGAAACAA,0.139
10,ACCCTAGT,-0.302
11,AAGAGCGA,-0.0751
12,GAAACTCA,-0.0472
13,GCAATCCA,-0.0617
14,GGGCCCAC,0.0989
15,ACCGCTCA,-0.075
16,ATTTCGAC,-0.0116
17,AATTTGAT,-0.0443
18,CGTCGCTC,0.0828
19,CGGGAGTA,0.343
20,GCAACAGC,-0.0616
21,ACTCGGAA,0.398
22,TTCAGCAA,-0.242
